In all, about 150,000 compounds went through this assay and about 540 (0.36%) showed an effect of 50% or more. This is one part of the list.

In this assay the test system is Plasmodium falciparum. Description: Primary screen in NF54 nanoGlo assay, in single point, at 2uM, 72h; a lower Z score goes with more inhibition. Format: functional, Erythrocyte. To be noted: timepoint 72 hour.
What is called % Inhibition is the change of the read-out against control, counted positive when it falls. Take `O=C1Nc2ccccc2Oc2ccc(NS(=O)(=O)c3ccc(F)c(Cl)c3)cc21`: the “% Inhibition” value was -13% and the Z score amounted to 1.44.
For `O=C(N[C@H]1CC(=O)N(c2c(F)cccc2F)C1)c1cc[nH]c(=O)c1`, in that order: 3% and -0.55.
For `CC[C@@H]1C[C@H]1NC(=O)NCc1cc(Cl)cc(S(=O)(=O)CC)c1`, in that order: -6% and 0.8.
For `Cc1occc1C(=O)NCc1cccnc1Oc1ccc(F)c(F)c1`, in that order: -3% and 0.58.
On to `O=C1CC[C@H](CC(=O)N2CCCn3c(cc4ccccc43)C2)CN1`, for which the “% Inhibition” value was -8% and the Z score stood at 0.83.
The like results for `CCc1nnc(NC(=O)c2sc(N(C)C)nc2C)s1` were, in that order, -13% and 1.3.
For `O=S(=O)(Cc1ccccc1)NC[C@H]1CCCO1`, in that order: -8% and 1.11.
The like results for `O=C(c1ccc(C(F)(F)F)cc1)N1C[C@H](COc2ccncc2)C2(CCOCC2)C1` were, in that order, 10% and -1.35.
Turning to `O=C(NCC1CS(=O)(=O)CCO1)C(c1ccccc1)C1CC1` (stereo not drawn), the “% Inhibition” value is -3% and the Z score is recorded as 0.23.
For `C[C@H]1C(=O)Nc2c(Cl)cc(Cl)cc2C(=O)N1C`, in that order: 7% and -0.91.
For `CC(C)c1cc(C(=O)N[C@@H](C)c2nc3c(s2)CCCC3)on1`, in that order: -8% and 1.37.
For `CC(C)c1nc(NC(=O)COc2cccc3c2ccn3C(C)C)n[nH]1`, in that order: -1% and 0.08.
In the case of `O=C1NCCCc2[nH]c(-c3cc(-c4ccccn4)no3)nc21`, the “% Inhibition” value is on record as -10% and the Z score was 1.91.
`COc1ccc(-c2nc3c([nH]2)CCN(c2ccc(C)nn2)C3)cn1`: the “% Inhibition” value came to 0% and the Z score is on record as -0.05.
The like results for `COc1ccc(CNC(=O)c2cc3c(n2C)CCN(Cc2ccc(F)cc2)C3)cc1` were, in that order, 6% and -0.68.
For `Cn1ccc(NC(=O)C(=O)N2CC[C@H](N3CCCCC3)C2)n1`, in that order: -10% and 0.93.
The like results for `Cc1ccc(CN2CC(O)C(O)C2)c(Br)c1` (stereo not drawn) were, in that order, 4% and -0.67.
On to `O=C1N[C@@H]2CCN(C(=O)c3cccs3)[C@@H]2C(=O)N1c1ccc(Oc2ccccc2)cc1`, for which the “% Inhibition” value is listed as 1% and the Z score was -0.24.
For `CCc1ccc2nc(C)cc(C(=O)N3CCC(Nc4ncccn4)CC3)c2c1`, in that order: -8% and 1.37.
For `OC1CCN(c2nncc3ccccc23)CC1`, in that order: 7% and -0.98.
In the case of `C=CCN(CC(=O)N1CCCN(c2ccc(-c3ccccc3)nn2)CC1)C(=O)c1ccc(Cl)cc1`, the “% Inhibition” value is -8% and the Z score stood at 1.23.
The like results for `Cc1cc(CCC(=O)N2CC(n3nccn3)C2)ccc1F` were, in that order, 2% and -0.27.
For `CCOc1cccc(-c2noc(Cn3ccn4nc(-c5ccc(F)cc5)c(CO)c4c3=O)n2)c1`, in that order: -14% and 1.61.
For `Cc1cc(C(=O)N2C[C@@H]3c4ccccc4OC[C@]3(CO)C2)nc2[nH][nH]c(=O)c12`, in that order: 0% and -0.03.
Consider `OCc1cccc(N(Cc2ccon2)C2Cc3ccccc3C2)c1`, for which the “% Inhibition” value is reported as -13% and the Z score is on record as 2.1.
The like results for `O=C(CCc1cccnc1)N1CCN(S(=O)(=O)c2ccc3c(c2)CCCC3)CC1` were, in that order, -3% and 0.32.
Regarding `COCCCn1c(NS(=O)(=O)c2ccccc2)c(S(=O)(=O)c2ccc(C)cc2)c2nc3ccccc3nc21`, the “% Inhibition” value turned out to be 43% and the Z score is -9.12.
For `CC1CCN(CCCC(=O)c2ccc(F)cc2)CC1` [MELPERONE], in that order: -6% and 0.66.
The like results for `CC(C)Cc1nc(N2CCCN(C(=O)C3CCCC3)CC2)c2c(-c3cccc(Oc4ccccc4)c3)noc2n1` were, in that order, -7% and 1.3.
On to `COc1ccc(CCC(C)NC2CCCc3ccccc32)cc1` (stereo not drawn), for which the “% Inhibition” value was -4% and the Z score is recorded as 0.77.
The like results for `CCN(CC)CC1(NC(=O)c2ccc(Cl)cn2)CC1` were, in that order, -8% and 1.08.
The like results for `Cc1cc(C)n(-c2oc(-c3cccnc3)nc2C#N)n1` were, in that order, 3% and -0.43.
The like results for `COCCN(CCOc1ccccc1F)C(=O)[C@@H]1CCCCN1C` were, in that order, -11% and 2.01.
As to `O=C(C1CCN(Cc2nnc(-c3ccco3)o2)CC1)N1CCCC1`, the “% Inhibition” value was -14% and the Z score stood at 2.64.
As for `COCCN(CC(C)C)c1cnccn1`, the “% Inhibition” value was -1% and the Z score is on record as 0.1.
For `c1cc2nnnn2nc1N1CCC2(CC1)OCCO2`, in that order: 1% and -0.15.
For `COc1cc(NC(=O)c2ccco2)c2cccnc2c1`, in that order: 1% and -0.11.
For `COc1ccc(Oc2cnn(-c3ccc(F)cc3)c(=O)c2Nc2ccc(C(=O)NCc3ccco3)cc2)cc1`, in that order: -1% and 0.13.
Turning to `CCn1c(C)nnc1CNC1CCCC1Cc1ccccc1` (stereo not drawn), the “% Inhibition” value was -10% and the Z score is on record as 1.03.
For `O=C(c1ccn2c(-c3ccc(F)cc3)nnc2c1)N1CCN(c2ccccc2F)CC1`, in that order: -2% and 0.34.
Turning to `Cc1noc([C@H]2OCC[C@H]2Nc2ncnc3ccc(C(C)C)cc23)n1`, the “% Inhibition” value is recorded as -10% and the Z score is on record as 1.9.
The like results for `Cc1cc(NC(=O)Nc2cc(-c3cccnc3)n[nH]2)nn1C(C)C` were, in that order, 33% and -3.39.
For `Cc1ccc(-n2nc3c(=O)n([C@@H](C)C(=O)NCc4ccccc4C)nc(C)c3c2C)cc1`, in that order: 0% and -0.03.
The like results for `O=C(CCc1ccc(=O)[nH]c1)NC1(c2ccc(Cl)cc2)CCCC1` were, in that order, -7% and 0.66.
As for `C=CCCC(=O)N1CCCC[C@H](c2ccc(Cl)cc2)C1`, the “% Inhibition” value is given as 29% and the Z score is -3.69.
For `COc1ccc(CN2CC[C@H](NS(=O)(=O)N(C)C)[C@@H](O)C2)cc1Cl`, in that order: -4% and 0.42.
For `CCC1(CC)C(NC(=O)C2CCCN2C(=O)c2ccccc2O)CC1OC` (stereo not drawn), in that order: -1% and 0.13.
The like results for `Cc1nc2cc(OCc3cc(C(=O)N4C[C@H]5CC[C@H]4C5)no3)ccc2s1` were, in that order, -4% and 0.67.
In the case of `CCc1onc(C)c1NC(=O)NCC1CCc2ccccc2CC1`, the “% Inhibition” value was -5% and the Z score is recorded as 0.83.
The like results for `Cc1cccc(C(=O)N2CCOC[C@@H]2CC(C)C)n1` were, in that order, -8% and 1.03.
The like results for `COC[C@H]1CCN1C(=O)Nc1csc(C)c1` were, in that order, -10% and 0.97.
For `CCN(Cc1cccn1-c1cccnc1)C[C@H]1CCCN(CCc2cccc(F)c2)C1`, in that order: -11% and 1.34.
As for `CCN1C[C@H](NC(=O)c2ccc(C)nc2C)[C@@H](OC)C1`, the “% Inhibition” value was -8% and the Z score was 1.54.
The like results for `O=C1C2C3C=CC([C@@H]2C(=O)N1Cc1cccnc1)C31CC1` (stereo partly drawn) were, in that order, -13% and 1.61.
The like results for `Cc1cnccc1NC(=O)CNC[C@H]1CCCO1` were, in that order, -4% and 0.56.
The like results for `Cc1cc([C@H](NCc2nnnn2C)c2ccccc2Cl)ccc1F` were, in that order, -2% and 0.29.
Take `N[C@@H](c1ccc2c(c1)CCO2)c1cc(Cl)ccc1Cl`: the “% Inhibition” value is recorded as 0% and the Z score was -0.02.
The like results for `CC1(C)C2CC=C(COCC(O)CNCc3ccccc3)C1C2` (stereo not drawn) were, in that order, 0% and 0.01.
The like results for `Cc1nc2c(C)cccc2cc1C(=O)N[C@H]1CCOC[C@@H]1OCCO` were, in that order, -15% and 1.42.
For `CCC1(CC)CNC(=O)[C@H]1NC(=O)Cc1cn2cc(F)ccc2n1`, in that order: 4% and -0.66.
Regarding `CCn1c(CNS(=O)(=O)c2ccccc2C)nc2cccnc21`, the “% Inhibition” value is 1% and the Z score is on record as -0.21.
Regarding `Cc1ccc(CNCc2nc3c(s2)CCCC3)s1`, the “% Inhibition” value stood at 2% and the Z score is recorded as -0.24.
For `Cc1oc(C)c(C(=O)N2CCC[C@H](n3cccn3)C2)c1C`, in that order: 3% and -0.45.
The like results for `N#Cc1cccc(-c2nnc(N3CCC4(CCCCC4)CC3)n2[C@H]2CCOC2)c1` were, in that order, -5% and 0.89.
With `CC1CC(CN2CCCC(c3ccncc3)CC2)CCO1` (stereo not drawn), the “% Inhibition” value is reported as 2% and the Z score is listed as -0.24.
The like results for `NC(=O)Cc1nc(C[C@H]2CCCOC2)n(C2Cc3ccccc3C2)n1` were, in that order, -3% and 0.59.
Take `Nc1c2c(-c3cccc(Cl)c3)nc(NCc3ccccn3)nc2nn1-c1ccccc1Cl`: the “% Inhibition” value turned out to be 0% and the Z score came out at 0.06.
For `Cc1c(CNC(=O)N2CCCN(C)C(=O)C2)oc2ccc(F)cc12`, in that order: -11% and 1.12.
The like results for `Cc1ccc(C)c(S(=O)(=O)NCc2ccc3c(c2)CCN3C(=O)C(C)C)c1` were, in that order, -1% and 0.15.
The like results for `CCOC1CC(NC2CCCn3nc(C(C)C)nc32)C1(C)C` (stereo not drawn) were, in that order, -8% and 1.28.
On to `CN(Cc1cscn1)C(=O)c1cccc(-c2noc(C3CC3)n2)c1`, for which the “% Inhibition” value is recorded as -6% and the Z score was found to be 0.85.
The like results for `O=C(NCc1ccc2c(c1)OCO2)c1csc(CN(CCC(c2ccccc2)c2ccccc2)Cc2ccc3c(c2)OCO3)n1` were, in that order, -3% and 0.56.
For `Cc1ccc(Cl)cc1NC(=O)CC(=O)N1CC[C@@H]1C`, in that order: -5% and 1.01.
In the case of `CN(Cc1cccc(N(C)C)c1)C(=O)c1ccncc1Br`, the “% Inhibition” value is on record as -6% and the Z score was found to be 0.69.
For `Cc1cc(S(=O)(=O)[C@H]2CS(=O)(=O)C[C@@H]2NCC(C)C)ccc1F`, in that order: 2% and -0.21.
For `CCc1nc(N(C)Cc2ccccc2)c2onc(-c3ccc(C)cc3)c2n1`, in that order: -8% and 1.07.
Take `NC(=O)C1CCN(C(=O)c2cc(=O)c(OCc3ccc(Cl)cc3)c[nH]2)CC1`: the “% Inhibition” value was -2% and the Z score is 0.34.
For `Cc1ccsc1CN(Cc1ccc(F)cc1)C(=O)CN(CC(C)C)C(=O)Cc1cccs1`, in that order: -1% and 0.1.
The like results for `Cc1cc2nc(N3CCOCC3)n(CC(=O)Nc3cc(F)cc(F)c3)c(=O)c2n1C` were, in that order, -18% and 1.91.
The like results for `CC(C)(C)OC(=O)Nc1ccc(N)cn1` were, in that order, -2% and 0.23.
Turning to `Cc1ccc(F)cc1C(=O)N[C@H]1CCCS(=O)(=O)C1`, the “% Inhibition” value is listed as -9% and the Z score came to 1.42.
For `CCOC(=O)C(C)(C)N(C)C(=O)[C@@H]1CCCO1`, in that order: -5% and 0.66.
For `Cc1ccc(F)c(OCc2nc([C@@H](N)CC(C)C)no2)c1`, the “% Inhibition” value is given as -12% and the Z score was found to be 2.08.
For `c1cc2cn[nH]c2cc1CN1CC[C@H](N2CCOCC2)C1`, in that order: 4% and -0.43.

The record behind these values is ChEMBL document CHEMBL4888484, “Replenishing the malaria drug discovery pipeline: Screening and hit evaluation of the MMV Hit Generation Library 1 (HGL1) against asexual blood stage Plasmodium falciparum ,using a nano luciferase reporter read-out” (2022).
